This is an account of results in ChEMBL document CHEMBL4229566, “Discovery of ( S)-3-(3-(3,5-Dimethyl-1 H-pyrazol-1-yl)phenyl)-4-(( R)-3-(2-(5,6,7,8-tetrahydro-1,8-naphthyridin-2-yl)ethyl)pyrrolidin-1-yl)butanoic Acid, a Nonpeptidic αvβ6 Integrin Inhibitor for the Inhaled Treatment of Idiopathic Pulmonary Fibrosis” (J Med Chem, 2018).

The Papp A→B is how fast a substance crosses the layer from the apical side. Read a low Papp A→B as slow passage. What is called logD is the decadic logarithm of the distribution of all forms, ionised or not, between an organic phase and buffer at a given pH. Higher therefore signals a more lipophilic compound. Broadly, the solubility is how much of the substance goes into solution per volume.

Data set [1] in a line: Protein binding in rat plasma at 1 ug/ml after 4 hrs by rapid equilibrium dialysis and LC-MS/MS analysis. Type of data set: ADME, cell-free. The following applies: at 1 µg/mL, read-out: PPB (converted). (In equilibrium dialysis free small molecules cross a membrane that holds back macromolecules.)
A short description of data set [2]: in vitro. Particulars: dog, MDCK-MDR1.
Data set [3] in a line: physchem. Particulars: buffer, pH 7.4, logD.
Data set [4] can be described thus: physchem. The following applies: buffer, pH 7.
Data set [5] can be described thus: physchem. Particulars: buffer, pH 6.9.
The nature of data set [6]: physchem. The following applies: buffer, pH 4.
The nature of data set [7]: physchem. Particulars: buffer, pH 7.5.
A short description of data set [8]: physchem. The following applies: buffer, pH 6.6.

As to `Cc1cc(C)n(-c2cccc([C@H](CC(=O)O)CN3CC[C@@H](CCc4ccc5c(n4)NCCC5)C3)c2)n1` [GSK-3008348 FREE BASE], the fraction unbound at 4 h, 1 ug/ml in data set [1] was 0.282. The same compound had an apparent permeability from apical to basolateral (Papp A→B) at 1 h, 3 µM in data set [2] of 2 ×10⁻⁶ cm/s.

In data set [3], `O=C(O)C[C@H](CN1CC[C@@H](CCc2ccc3c(n2)NCCC3)C1)c1cccc(C2CC2)c1` registered a logD of 3.34.

On to `Cc1cc(C)n(-c2cccc([C@H](CC(=O)O)CN3CC[C@@H](CCc4ccc5c(n4)NCCC5)C3)c2)n1.Cl` [GSK-3008348], for which the solubility is above 71 mg/mL in data set [4]; above 34 mg/mL in data set [5]; above 55 mg/mL in data set [6]; 31 mg/mL in data set [7]; above 55 mg/mL in data set [8].

In turn, `O=C(O)C[C@@H](CN1CC[C@@H](CCc2ccc3c(n2)NCCC3)C1)c1cccc(C2CC2)c1` returned a pH-dependent lipophilicity (logD) in data set [3] of 3.21.

Compound `O=C(O)C[C@H](CN1CC[C@@H](CCc2ccc3c(n2)NCCC3)C1)c1cccc(OC2CCOCC2)c1` displayed a pH-dependent lipophilicity (logD) in data set [3] of 2.75.

`Cc1ccnn1-c1cccc([C@H](CC(=O)O)CN2CC[C@@H](CCc3ccc4c(n3)NCCC4)C2)c1` had a log distribution coefficient (logD) in data set [3] of 2.55.
